According to PubChem BioAssay AID1508624 (National Center for Advancing Translational Sciences (NCATS), 2021):
Out of some 48,000 compounds screened, about 120 (0.25%) were called active. About 4% were inconclusive and are not listed. Calls come from the whole dose curve; as a rule, active = well fitted activation curve with a large enough effect; inconclusive = small, poorly fitted or top-dose-only effect, or another doubt; inactive = no such curve, though single readings can be large or run the other way. The list shows a part of the results.

Assay: Primary qHTS for Identification of Small Molecule Activators of Huntingtin-Antisense Promoter Activity; note: nearly all actives have a fitted effect of over 55% in size
Details: HEK293 HTT-AS promoter firefly luciferase reporter (activity 0% = vehicle and -100% = no light), 24 h; series mostly up to 57.5 µM; activity change, positive = activation: at the top concentration
Method in brief: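 Firefly luciferase readout (Dual-Glo, 10 min RT) after 24 h, 37 °C compound exposure (final up to 57.5 uM) of HEK293 reporter cells cultured 24 h beforehand; PTC124 at 50 uM final as control inhibitor; activity scaled vehicle 0%, zero RLU -100%.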

Activity change, positive = activation, inactive:
COc1ccc(N2CCN(C(CNC(=O)c3ccc(OC)c(OC)c3)c3cccnc3)CC2)cc1 (centres undefined) -14.6%
CCc1ccc(OCC(=O)N(Cc2ccc(C(C)C)cc2)C2CCS(=O)(=O)C2)cc1 (centres undefined) -22.2%
Cc1ccc(-c2noc(CNC(=O)c3ccc(C)c(Cl)c3)n2)cc1 -10.6%
NC(=O)N1c2ccccc2C=Cc2ccccc21 -5.75%
C[C@]12CC[C@@H]3c4ccc(O)cc4CC[C@H]3[C@H]1C[C@@H](O)[C@H]2O -27.6%
CCN(CC)C(=O)C1=C(C)Nc2nc3ccccc3n2C1c1cccc(OC)c1 (centres undefined) -21%
O=C(Nc1ccccc1C(F)(F)F)c1ccc(F)c(S(=O)(=O)N2CCc3ccccc3C2)c1 -24.3%
O=C(NCc1ccccc1Cl)c1nnc(Cc2cccc(F)c2)o1 -16%
Cc1ccc2c(CC(=O)N(Cc3ccc(N(C)C)cc3)Cc3ccco3)coc2c1C -6.02%
Cc1ccc2oc(-c3ccc(C)c(NC(=O)/C=C/c4ccco4)c3)nc2c1 -29.8%
Cc1ccc(CNC(=O)Cn2ccn(-c3cccc(Cl)c3)c(=O)c2=O)cc1 -0.592%
COc1cccc(-c2cc(C(F)(F)F)n3ncc(C(=O)OC(C)C)c3n2)c1 -11.2%
COc1ccc(N(Cc2cc3ccccc3[nH]c2=O)C(=O)c2cccc(Cl)c2)cc1 2.95%
CC(=O)N1c2ccccc2CC1C(=O)N1CCN(c2ccccc2)CC1 (centres undefined) -6.48%
Cc1ccc(NC(=O)c2c(C)cc(C)nc2SCC(=O)Nc2ccc(Br)cc2)cc1 -26.7%
CCc1nc2ccc(C(=O)NCCc3ccccc3OC)cc2nc1CC -21.1%
CCCCN1CC(c2nc3ccccc3n2CCCCOc2cc(C)ccc2C)CC1=O (centres undefined) -47.1%
O=C(CS(=O)(=O)c1cccc2nsnc12)Nc1ccccc1Cl -10.6%
CN(C(=O)CCc1nc(-c2ccccc2F)no1)c1ccc(Cl)cc1 -18.5%
O=S(=O)(c1ccc(OC(F)(F)F)cc1)N1CCC(c2nnnn2-c2ccc(F)cc2)CC1 -15.1%
Cc1ccc(NC(=O)c2nc(S(C)(=O)=O)ncc2N(Cc2ccc(C(C)(C)C)cc2)Cc2ccco2)cc1C -15.2%
COc1cc(C(=O)NCC(c2ccc3c(c2)OCO3)N2CCOCC2)cc(OC)c1OC (centres undefined) -7.27%
CCCC(O)c1nc2ccccc2n1CCCOc1ccc(Cl)cc1 (centres undefined) -38.9%
CCc1cccc(NC(=O)C2CCCN(c3ncnc4onc(-c5ccc(F)cc5)c34)C2)c1 (centres undefined) -29.7%
CCN1CCSc2ccc(C(=O)NCc3ccc(OC(C)C)cc3)cc21 -9.35%
CCn1cc(C(=O)OCC(=O)Nc2ccc(C)c(Cl)c2)c(=O)c2ccc(C)nc21 -2.11%
COc1ccc(-c2noc(CSCC(=O)Nc3cc(OC)c(OC)c(OC)c3)n2)cc1OC 0.105%
CCOc1ccc(-c2cc3c(=O)n(CC(=O)NCc4ccc(C)cc4)ccn3n2)cc1 27.3%
Cc1cccc(C(=O)OCc2cc(=O)n3ccsc3n2)c1 27.3%
COc1ccc(Cn2ccc3nc(C)c(C(=O)Nc4ccc(OC)cc4)cc3c2=O)cc1 -9.3%
COc1ccc(CNC(=O)C2CCN(S(=O)(=O)c3c(C)noc3/C=C/c3ccccc3F)CC2)cc1 -2.07%
CC(=O)Nc1nc2n(n1)C(c1ccc(F)cc1)C=C(c1ccc(Cl)cc1)N2 (centres undefined) -17.9%
CC(C(=O)NCCSCc1cccc(Cl)c1)N(c1ccccc1)S(C)(=O)=O (centres undefined) -32.5%
COc1ccc(CCNC(=O)CCn2c(=O)c3ccccc3n(Cc3ccccc3F)c2=O)cc1OC -25.1%
O=c1cc(-c2ccc(O)cc2)oc2cc(O)cc(O)c12 18.5%
Cc1cccc(OCC(=O)Nc2cccc(OCc3cc(=O)n4cccc(C)c4n3)c2)c1 0.789%
Cc1cc2nc(-c3cccc(NC(=O)c4cccc5ccccc45)c3)oc2cc1C 5.38%
CCOc1ccc(N2CC(NC(=O)c3ccco3)CC2=O)cc1 (centres undefined) -4.55%
CC1CCCN(C(=O)c2cc3ccc4cccnc4c3[nH]2)C1 (centres undefined) -57.1%
Cc1cc(C)c(NC(=O)Cn2c(=O)c3cccn3c3ccccc32)c(C)c1 -7.66%
COc1cccc(-n2ccnc2SCC(=O)Nc2c(C)cc(C)cc2C)c1 -14.5%
CCCCNC(=O)c1ccc2c(c1)N(Cc1ccc(F)cc1)C(=O)c1ccccc1S2=O (centres undefined) -25.4%
CCOCCCNC(=O)c1ccc(-n2c(-c3ccccc3)cc3c2CCCC3)cc1 5.98%
CCSc1ncc(Cl)c(C(=O)N2CCN(c3ccccc3OC)CC2)n1 -40%
Cc1ccc(C)c(NC(=O)CN(C)S(=O)(=O)c2cccc3nsnc23)c1 1.17%
CCN(CC)c1nc2ccccc2nc1C(=O)Nc1ccc(C(C)=O)cc1 -6.15%
Cc1ccc(-n2nc(C(=O)Nc3ccc(F)cc3F)c3c4ccccc4n(C)c3c2=O)cc1 -9.54%
Cc1cccc(N(C)c2nc3ccc(C(=O)c4ccccc4)cc3n3c(C)nnc23)c1 -49.4%
CC(C)(C)C1CCc2c(sc(NC(=O)c3cc4ccccc4c(=O)o3)c2C(N)=O)C1 (centres undefined) -1.73%
Cc1ccc(C)c(NC(=O)Cn2c(=O)n(CCC(C)C)c(=O)c3cccnc32)c1 -15.4%
COc1ccccc1NC(=O)Cn1cc(S(=O)(=O)Cc2ccccc2)c2ccccc21 -24.4%
CCCCCOc1ccc(/C=C/C(=O)Nc2sc(C)c(C)c2C(=O)OCC)cc1OC 2.13%
O=C(O)Cc1csc(-c2ccc(Cl)cc2)n1 -5.6%
CC(=O)c1cccc(NC(=O)C2CCN(S(=O)(=O)c3ccc4c(c3)CCCN4C(C)=O)CC2)c1 -12.3%
Cc1ccc(-c2nc(C)c(CCNC(=O)c3cccs3)s2)cc1 -4.77%
Cc1c(C(=O)OCc2ccccc2)[nH]c2c1C(=O)CC(c1ccc(C(C)(C)C)cc1)C2 (centres undefined) -18.5%
CCc1cccc(NC(=O)c2cc3c(=O)n(Cc4ccccc4)ccc3nc2C)c1 -38.6%
C[C@H](NC(=O)c1sccc1OCc1ccc(Cl)cc1)c1ccccc1 -45.7%
Cc1ccc(CN2CCCn3nc(C(=O)NCCc4ccccc4C)cc3C2=O)cc1 3.69%
CC(C)c1ccc(NC(=O)C2CCN(C(=O)c3ccc(F)cc3)CC2)cc1 -23.2%
COc1cc(C(=O)Nc2ccccc2-c2nc(-c3ccccc3)no2)cc(OC)c1OC 3.87%
CC(C)CCNC(=O)CN1C(=O)CSc2ccc(S(=O)(=O)N3CCC(C)CC3)cc21 -17.4%
Cc1ccc2nc(-c3cccs3)c(Nc3c(C)cccc3C)n2c1 -44.1%
Cc1c(C(=O)NCc2ccc(F)cc2)oc2ccc(S(=O)(=O)N3CCCCC3)cc12 -20.8%
COc1ccc(NC(=O)[C@H]2O[C@@H]3OC(C)(C)O[C@@H]3[C@H]3OC(C)(C)O[C@H]32)c(OC)c1 11%
CCOC(=O)C1CCCN(c2nc3c(S(=O)(=O)c4ccc(CC)cc4)nnn3c3ccsc23)C1 (centres undefined) -19.7%
Cc1ccc2c(c1)c1c(c(=O)n(-c3cccc(Cl)c3)c(=O)n1CC(=O)NCC1CCCO1)n2C (centres undefined) -8.42%
Cn1c(=O)[nH]c(=O)c2c1nc(N1CCOCC1)n2Cc1ccccc1 -23%
C=C1C(=CC=C2CCC[C@]3(C)[C@@H]([C@H](C)C=C[C@H](C)C(C)C)CC[C@@H]23)C[C@@H](O)C[C@@H]1O -21.6%
CCc1cccc(NC(=O)CCc2nc3cccnc3n2Cc2ccc(OC)cc2)c1 -24.1%
CCOC(=O)Cc1ccc(NC(=O)Nc2c[nH]c(=O)[nH]c2=O)cc1 -13.5%
CCN(CC)CCNC(=O)Cn1ncc2c3ccccc3n(Cc3ccc(Cl)cc3)c2c1=O 0.0939%
Cc1ccc(-c2csc(-c3nc(-c4ccc(Br)s4)cs3)n2)cc1 -10.4%
Cc1ccc(NC(=O)CSc2nc(=O)n(Cc3cccnc3)c3c2CCC3)cc1F -39.8%
CCc1cccc(C)c1NC(=O)c1cc(S(=O)(=O)N(Cc2ccc(C(=O)OC)cc2)Cc2ccc(OC)c(OC)c2)ccc1F -13.8%
Cc1ccccc1C(=O)N1CC/C(=N\OS(=O)(=O)O)c2ccc(Cl)cc21 0.282%
Cc1ccccc1Oc1nc2ccccn2c(=O)c1/C=C(\C#N)c1nc2ccccc2[nH]1 -3.54%
COc1ccc(NC(=O)CN2C(=O)CC(c3ccc(C)c(C)c3)=Nc3ccccc32)cc1OC 23.1%
COc1ccc(Cc2nc3ccc(C(=O)NCc4ccccc4C)cc3o2)cc1 -14%
CCC(CC)C(=O)Nc1ccc2nc(SCC(=O)N3CCCC3)sc2c1 -21.3%
CCOc1ccc(NC(=O)C(Cc2ccccc2)NS(=O)(=O)c2ccc3c(c2)oc(=O)n3C)cc1 (centres undefined) -12.8%
Cc1c(Cl)cccc1-c1ccc(CNCCSc2nnnn2-c2ccccc2)o1 4.36%
COc1ccccc1C(=O)Nc1ccc2nc(SCC(=O)N(C)c3ccccc3)sc2c1 -42.6%
CCS(=O)(=O)c1ncc(N(Cc2ccccc2)Cc2ccco2)c(C(=O)Nc2cccc(Cl)c2C)n1 -24%
CCN(CC)S(=O)(=O)c1ccc(NC(=O)CN(c2ccccc2)S(=O)(=O)N(C)C)cc1 -16.5%
CCOc1ccc(NC(=O)c2c(Nc3ccccc3C)sc(C(=O)c3ccccc3)c2N)cc1 -27.8%
O=C(CN1C(=O)C2(SCC(=O)N2c2cccc(Cl)c2)c2ccccc21)NCCc1ccccc1 (centres undefined) -34.3%
CCOc1ccc(CNC(=O)c2ccc3c(c2)c(C)c(C)n3Cc2ccccc2)cc1OC -12%
Cc1ccc(-n2ncc(C(=O)N3CCN(c4cc(Cl)ccc4C)CC3)c2C2CCN(C(=O)OC(C)(C)C)CC2)cc1 0.14%
COc1ccc(CCNC(=O)c2ccc3c(c2)N(Cc2ccccc2)C(=O)c2ccccc2S3=O)cc1OC (centres undefined) -21.6%
COC(=O)c1ccc(Cl)cc1NC(=O)Nc1nnc(N2CCCC2)s1 0.75%
Cc1ccc(C)c(Cn2c3ccccc3c3cnn(CC(=O)NC(C)CCc4ccccc4)c(=O)c32)c1 (centres undefined) -29.3%
Fc1ccc(C(c2nnc(-c3ccccc3)o2)N2CCN(c3cccc(Cl)c3)CC2)cc1 (centres undefined) -17.8%
COc1ccc(CN2C(=O)C(NC(=O)c3cccc(C)c3)(C(F)(F)F)N=C2c2ccccc2)cc1 (centres undefined) -24%
